The campaign covered roughly 48,000 compounds. About 120 (0.25%) were called active. Another 4% or so got no clear call; they are omitted. The call rests on the fitted dose curve; in most records, active means well fitted activation curve with a large enough effect; inconclusive means small, poorly fitted or top-dose-only effect, or another doubt; inactive means no such curve, though single readings can be large or run the other way. Some of the results follow.
Experiment: Primary qHTS for Identification of Small Molecule Activators of Huntingtin-Antisense Promoter Activity; further: nearly all actives have a fitted effect of over 55% in size
Settings: HEK293 HTT-AS promoter firefly luciferase reporter, 24 h; series mostly up to 57.5 µM; activity change, positive = activation: at the top concentration
Outline: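 HEK293 luciferase promoter-reporter cells (2,500/well) plated 24 h, then compounds added at up to 57.5 uM final for 24 h at 37 °C. Firefly luminescence by Dual-Glo, normalized to vehicle (0%) and zero RLU (-100%).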

Activity change, positive = activation, inactive:
Cc1oc(-c2ccc(Cl)cc2)nc1CSCC(=O)NCc1ccccc1Cl -39.3%
CC(CNC(=O)Cn1c(-c2cccs2)cc2ccccc21)c1ccccc1 (stereo unspecified) -36.8%
CCC(=O)N1CCc2cc(Br)cc(S(=O)(=O)N3CCCC(C(=O)NCc4ccc(OC)cc4)C3)c21 (stereo unspecified) -21.5%
COC(=O)Cc1c(C)c2ccc3c(c2oc1=O)CN(Cc1ccccc1OC)CO3 -14%
CCCOc1ccc(C2c3c(-c4ccccc4O)n[nH]c3C(=O)N2CCCOCC)cc1OCC (stereo unspecified) -25.7%
O=C(Nc1cccc(F)c1)c1cccc2c1C(=O)N(C1CCCCC1)C2 -16.2%
Cc1ccc(Cl)cc1N1CCN(CCCNC(=O)c2nnc(Cc3cccc(Cl)c3)o2)CC1 -46.1%
CCC(=O)N1CCCc2cc(S(=O)(=O)N3CCC(C(=O)Nc4ccccc4CC)CC3)ccc21 -46.5%
O=C(Cn1cc(C(=O)C2CC2)c2ccccc21)Nc1ccc(Br)cc1 -18.8%
COc1ccccc1N1CCN(c2ccc(-c3nc(-c4ccccc4)no3)cc2[N+](=O)[O-])CC1 -7.14%
Cc1ccc(C)c(Cn2c(=O)n(CCCCCC(=O)NCc3ccc4c(c3)OCO4)c(=O)c3sccc32)c1 -31.5%
CC(=O)c1ccc(NC(=O)CCCc2nc(-c3cccc(C)c3)no2)cc1 -13.9%
Cc1c(C)n(Cc2ccc(F)cc2)c2ccc(C(=O)Nc3ccc(Cl)cc3)cc12 -30.5%
O=C(CC1C(=O)N(c2ccccc2)C(=O)N1Cc1ccc2c(c1)OCO2)Nc1ccccc1 (stereo unspecified) 0%
O=C1CC(c2nnc(Cc3ccccc3Cl)o2)CN1c1ccccc1 (stereo unspecified) -17.1%
Cc1ccc(-c2cc3c(n2-c2ccccc2F)CC(C)(C)CC3=O)cc1 -1.58%
CCOC(=O)c1ccc(CN(Cc2ccccc2C)S(=O)(=O)c2ccc(F)c(C(=O)Nc3cccc(OC)c3)c2)cc1 -21.5%
O=C(CN1C(=O)CSc2ccc(S(=O)(=O)N3CCCC3)cc21)NCc1ccc(Cl)cc1 -20.9%
COc1ccc(NC(=O)CN2C(=O)COc3ccc(S(=O)(=O)N4CCCCC4)cc32)cc1Cl -19.4%
COc1ccc(NC(=O)c2oc3ccccc3c2NC(=O)Cc2cccs2)cc1 1.28%
CCOC(=O)c1cnc2ccc(C)cc2c1NCCc1ccc(OC)c(OC)c1 2.14%
COc1ccc(C)cc1NC(=O)N1CCN(c2cc(-c3noc(C)n3)ccc2C)CC1 -43.3%
Cc1cccc(N2CCN(C3(c4ccccc4)C(=O)c4ccccc4C3=O)CC2)c1C 3.49%
Cc1ccc(S(=O)(=O)N2CCOCC2)cc1C(=O)Nc1ccccc1C(=O)O -12.2%
O=S(=O)(Nc1ccc2nc(-c3cccc(Cl)c3)oc2c1)c1ccccc1 4.19%
COc1ccc(CCNC(=O)c2c(C)nn(-c3ccc(F)cc3)c2-n2cccc2)cc1OC -34.3%
Cc1ccc2onc(CC(=O)N(C)c3ccccc3)c2c1 -3.25%
CC(=O)N[C@@H](CCC(N)=O)C(=O)O -3.89%
O=S(=O)(Nc1nc2n(n1)C(c1ccc(F)cc1)C=C(c1ccccc1)N2)c1ccc(Cl)cc1 (stereo unspecified) -19.5%
CC(C)Sc1ncc(Cl)c(C(=O)Nc2nnc(C(C)C)s2)n1 23%
CCc1ccc(NC(=O)Cn2c(=O)oc3cc(S(=O)(=O)N4CCCCCC4)ccc32)cc1 -48.8%
Cc1onc(-c2ccc(F)cc2F)c1C(=O)Nc1cccc(C(F)(F)F)c1 -27.9%
CN(C(=O)C(=O)Nc1ccc2nc3n(c(=O)c2c1)CCCCC3)c1cccc(C(F)(F)F)c1 -20.5%
CCc1ccc(CNC(=O)c2cc(-c3ccc(Br)s3)nc3ccccc23)cc1 2.18%
O=C(Nc1ccccc1)c1cccc(S(=O)(=O)Nc2cccc(F)c2)c1 -21.4%
COc1cccc(-c2ccc3c(N)c(C(=O)NCc4ccc(Cl)cc4)sc3n2)c1 -29%
CCCNC(=O)C1CCN(c2ncnc3c2nc2n3CCCCC2)CC1 -3.19%
CCOC(=O)N1CCc2c(sc(NCc3ccc(OC)c(OC)c3OC)c2C(=O)Nc2ccc(OC)cc2OC)C1 -85.8%
CCCC(=O)NCC(c1ccc2c(c1)OCO2)N1CCN(c2ccccc2)CC1 (stereo unspecified) -10.4%
CCCCCOc1ccc(/C=C/C(=O)Nc2sc(C(C)=O)c(C)c2C(=O)OCC)cc1OC 2.78%
CCc1ccc(-n2c(=O)c3sc4ccccc4c3n(Cc3cccc(F)c3)c2=O)cc1 -9.05%
Cc1oc(C)c2c(=O)cc(-c3ccc4c(c3)OCO4)cc(OC(=O)c3ccccc3Cl)c12 -14.2%
C=C1CCC2[C@](C)(CO)C(O)CC[C@]2(C)C1CC=C1C(=O)OCC1O (stereo partly specified) -4.74% [at 116 µM, percent change from vehicle, -100% = no light]
CC(=O)NO -0.814%
Cc1c(Cl)cccc1NC(=O)Cn1c(=O)nc(-c2ccccc2)c2ccccc21 -40.9%
COc1ccccc1CNC(=O)c1ccc2nc(-c3ccccc3)c(-c3ccccc3)nc2c1 -20%
CCn1cc(C(=O)NCc2ccc(C)cc2)c(=O)c2cc(S(=O)(=O)N3CCCCCC3)ccc21 -12.3%
CCOc1ccc(CNC(=O)c2ccc(NC(=O)N3CCCCc4ccccc43)cc2)cc1OC -6.07%
O=C(CCc1nc2cccnc2n1Cc1cccs1)Nc1cccc(Cl)c1 -25.4%
CCOC(=O)c1cc(-c2ccccc2)n(CCC(=O)Nc2ccc(Cl)c(C(F)(F)F)c2)c1C -51.3%
Cc1nn(C)c2c1c(C(F)(F)F)cc(=O)n2Cc1cccc(Br)c1 -4.37%
CC(C)CNc1nc(Oc2ccc(OCC(N)=O)nn2)nc(N2CCOCC2)n1 -13.1%
C/C=C/C=N/NC(=O)c1ccncc1 -6.15%
Cn1cc(S(=O)(=O)N2CCCCCC2)cc1C(=O)NCc1ccccc1Cl -32.3%
CCOc1ccc(-n2c(-c3ccccc3)c(C)n3c4c(=O)n(C)c(=O)n(C)c4nc23)cc1 22.1%
Cc1cc(-c2nnc3n2CCCCC3)c(C)n1-c1ccccc1 -50.1%
Cc1nc2c(C(=O)NCCc3ccccc3)cnn2c(C)c1Cc1c(F)cccc1Cl 0.162%
Cc1c2cnn(CC(=O)NCc3ccc(F)cc3)c(=O)c2c(C)n1Cc1ccccc1F -15.5%
COc1ccc(Cl)cc1Nc1ncnc2c1c(-c1ccccc1)cn2-c1ccccc1 -11.5%
CC(C)(C)OC(=O)N1CCC(c2c(C(=O)NCc3cccs3)cnn2-c2ccc(F)cc2F)CC1 -32.7%
CCOCCCNC(=O)c1cc2c(-c3ccc(OC)c(OC)c3)nn(C)c2s1 -39.2%
COCCN1CCc2nc(SCC(=O)Nc3ccc(Br)cc3)[nH]c(=O)c2C1 20.2%
Cc1noc(/C=C/N(C)C)c1S(=O)(=O)N1CCCC(C(=O)Nc2ccc(F)cc2F)C1 (stereo unspecified) -24.1%
CCN(CC)C(=O)c1sc(NC(=O)C(C)Sc2nc(-c3ccccc3)cc(C(F)(F)F)n2)c(C(=O)OC)c1C (stereo unspecified) -25.3%
CCC(=O)Nc1ccc(S(=O)(=O)NCc2ccc3c(c2)CCN3C(=O)c2ccc(C)cc2)cc1 -53.6%
COc1cc(Nc2ncc(F)c(Nc3ccc4c(n3)NC(=O)C(C)(C)O4)n2)cc(OC)c1OC -19.8%
COC(=O)c1ccccc1NC(=O)CCC(=O)N1CCOc2ccccc21 -0.521%
CCOC(=O)c1c(-c2ccccc2)csc1NC(=O)c1nc(S(=O)(=O)CC)ncc1Cl -87.9%
Cc1cccc(-c2c3c(=O)n(C)c(=O)n(C)c3cn2-c2cc(N)c(Cl)cc2Cl)c1 -33.1%
CCN(c1ccccc1)c1nnc(NC(=O)Nc2cccc(Cl)c2C)s1 -9.44%
CC(=O)c1ccc(NC(=O)Nc2nnc(N3CCCC(C)C3)s2)cc1 (stereo unspecified) 8.62%
CSc1ccc(-c2nc3ncccn3c2Nc2ccc(C)c(C)c2)cc1 -18.8%
Nc1cc(=O)nc(SCC(=O)Nc2cccc(Cl)c2)n1CCc1ccccc1 -36.3%
Cc1cc(C)c2c(=O)cc(CSc3nnc(COc4ccccc4C)n3C)[nH]c2c1 -11.2%
O=c1cc(-c2ccccc2)c2cc(Cl)c3c(c2o1)CN(Cc1ccccc1)CO3 -21.7%
CN1CCCN=C1COC(=O)C(O)(c1ccccc1)C1CCCCC1 (stereo unspecified) -4.31%
CCOC(=O)c1ccc(N2C(=O)c3n[nH]c(-c4cccs4)c3C2c2ccc(C(C)C)cc2)cc1 (stereo unspecified) -51.4%
COc1ccc(CC(=O)NCc2ccc3c(c2)CCN3C(=O)c2ccc(Cl)cc2)cc1OC -26.5%
Cc1ccc2c(c1)c1c(c(=O)n(-c3ccccc3C)c(=O)n1CC(=O)NCc1ccccc1)n2C -15.7%
Cc1cc(-c2ccc(C)c(S(=O)(=O)N(C)c3ccc(C)c(C)c3)c2)on1 -37.9%
COc1ccccc1NC(=O)Cn1c(=O)n(Cc2ccco2)c(=O)c2cccnc21 -23.5%
Cc1ccc(OCCCn2c(CCNC(=O)C3CCCCC3)nc3ccccc32)c(C)c1 -4.21%
CCOC(=O)c1c(Oc2ccc(OC)cc2)nnc(-c2ccccc2)c1-c1ccccc1 -19%
COc1ccc(OC)c(NC(=O)CN2C(=O)c3ccccc3Sc3ccc(C(=O)N4CCCC4)cc32)c1 -29.9%
COc1ccc(N(Cc2cccs2)C(=O)Nc2ccccc2)cc1 -16.4%
CCS(=O)(=O)c1ncc(Cl)c(C(=O)N2CCN(c3cccc(Cl)c3)CC2)n1 -94.6%
NC(=O)C1(N2CCCCC2)CCN(C(=O)Nc2ccc(C(F)(F)F)cc2)CC1 -15.5%
Cc1ccc(NCc2ccccc2-c2nnc(-c3ccccc3Cl)o2)c(C)c1 7.52%
Cc1ccc(CNS(=O)(=O)c2cc(C(=O)Nc3cccc(C(F)(F)F)c3)ccc2F)cc1 -18.5%
CC(C)(Oc1ccc(Cl)cc1)C(=O)O -1.21%
COCCCNC(=O)C(=O)NCC(c1ccc2c(c1)OCO2)N1CCOCC1 (stereo unspecified) -16%
CCN1C(=O)c2ccccc2S(=O)c2ccc(C(=O)NCc3ccc(F)cc3)cc21 (stereo unspecified) -27.3%
COc1ccc(NC(=O)C2=C(C)Nc3nc(CCCO)nn3C2c2ccc(O)cc2)cc1 (stereo unspecified) 5.27%
Cc1ccc(C)c(S(=O)(=O)c2nnn3c2nc(N2CCOCC2)c2sccc23)c1 -5.27%
CC(C)N(Cc1ccccc1)c1ncnc2c1nnn2C -14.7%
CCOc1ccc(C(c2c(O)cc(C)n(CCOC)c2=O)N2CCN(c3ccccc3F)CC2)cc1 (stereo unspecified) -14.1%
